The other results are listed elsewhere or left out.
B1: PhoQ; a variant is named by its letters at X, in order, P23837 (parent)
chain: MKKLLRLFFPLSLRVRFLLATAAVVLVLSLAYGMVALIGYSVSFDKTTFRLLRGESNLFYTLAKWENNKLHVELPENIDKQSPTMTLIYDENGQLLWAQRDVPWLMKMIQPDWLKSNGFHEIEADVNDTSLLLSGDHSIQQQLQEVREDDDDAEMTHSVAVNVYPATSRMPKLTIVVVDTIPVELKSSYMVWSWFIYVLSANLLLVIPLLWVAAWWSLRPIEALAKEVRELEEHNRELLNPATTRELTSLVRNLNRLLKSERERYDKYRTTLTDLTHSLKTPLXXLQXXLRSLRSEKMSVSDAEPVMLEQISRISQQIGYYLHRASMRGGTLLSRELHPVAPLLDNLTSALNKVYQRKGVNISLDISPEISFVGEQNDFVEVMGNVLDNACKYCLEFVEISARQTDEHLYIVVEDDGPGIPLSKREVIFDRGQRVDTLRPGQGVGLAVAREITEQYEGKIVAGESMLGGARMEVIFGRQHSAPKDE

Variants of: B1
Experiment: enrichment ratio after two sorts for PhoP signalling (ratio (wild type AVST 3.29)); higher = more functional
Settings: with PhoP (E. coli)

Variant	enrichment ratio
VAHF	≤ 0.25
HSIE	≤ 0.25
LVCW	≤ 0.25
SVGL	5.82
ISDI	≤ 0.25
WHFI	≤ 0.25
GYNW	≤ 0.25
PTMS	≤ 0.25
MIAN	6.22
RYQT	≤ 0.25
VEMH	5.99
ILMV	≤ 0.25
PLRL	≤ 0.25
QHRQ	≤ 0.25
TKPQ	≤ 0.25
ICPQ	≤ 0.25
DRMF	≤ 0.25
VYWF	≤ 0.25
WPMC	≤ 0.25
PQNH	≤ 0.25
KYGF	≤ 0.25
FTKL	≤ 0.25
GYKH	≤ 0.25
GPYD	≤ 0.25
ILAR	≤ 0.25

Variant	enrichment ratio
MLHV	≤ 0.25
RFPG	≤ 0.25
SETC	13.2
HKSW	≤ 0.25
IDKG	≤ 0.25
GSVG	≤ 0.25
QQIG	≤ 0.25
VFPT	≤ 0.25
NCFG	≤ 0.25
FDHL	≤ 0.25
IAGA	≤ 0.25
NPRH	≤ 0.25
VIIR	0.252
PIYQ	≤ 0.25
PVFQ	≤ 0.25
HISM	≤ 0.25
TEMA	38.6
FQPE	≤ 0.25
LVGN	≤ 0.25
IVTK	≤ 0.25
MFAG	≤ 0.25
LECN	≤ 0.25
WIRC	≤ 0.25
PEMM	≤ 0.25
RHRI	≤ 0.25

Variant	enrichment ratio
ERNE	≤ 0.25
CTMY	42.4
WHLR	≤ 0.25
MLPL	≤ 0.25
AARD	≤ 0.25
KGSN	≤ 0.25
MYVT	≤ 0.25
ELPL	≤ 0.25
IWRD	≤ 0.25
WYEL	≤ 0.25
ICSK	≤ 0.25
VAGE	2.49
LVYE	≤ 0.25
RYPS	≤ 0.25
GRCC	≤ 0.25
IWWV	≤ 0.25
ESVW	≤ 0.25
ICHD	≤ 0.25
TMKS	≤ 0.25
YSII	≤ 0.25
PKCP	≤ 0.25
MKVL	≤ 0.25
MGNY	≤ 0.25
RQKP	≤ 0.25
DYGP	≤ 0.25

Variant	enrichment ratio
FILG	2.69
HEDP	≤ 0.25
EFKQ	≤ 0.25
SAVP	≤ 0.25
MLIK	≤ 0.25
FVAG	≤ 0.25
HYYF	≤ 0.25
WLGG	≤ 0.25
EMMY	≤ 0.25
HDYN	≤ 0.25
PNLY	≤ 0.25
YLYH	≤ 0.25
WLCN	≤ 0.25
EDYM	≤ 0.25
YDKL	≤ 0.25
KFVR	≤ 0.25
VDPA	≤ 0.25
KTHS	0.436
KDWC	≤ 0.25
DTVA	≤ 0.25
HFKW	≤ 0.25
TRGY	1.21
YQNH	≤ 0.25
VDLI	≤ 0.25
TMWL	≤ 0.25

Variant	enrichment ratio
YPEA	≤ 0.25
YRAC	≤ 0.25
GRDG	≤ 0.25
RRDM	≤ 0.25
LIDR	≤ 0.25
AGDK	≤ 0.25
WTPT	≤ 0.25
WNDG	≤ 0.25
GPIL	≤ 0.25
IYWG	≤ 0.25
MKCA	≤ 0.25
FKLH	≤ 0.25
NTSC	≤ 0.25
GVLR	5.94
TMHN	≤ 0.25
DMFG	≤ 0.25
PDSK	≤ 0.25
NHAM	≤ 0.25
CTMF	25.7
VDAM	≤ 0.25
PFHL	≤ 0.25
DITP	≤ 0.25
QSII	≤ 0.25
DRYK	≤ 0.25
EKKS	≤ 0.25

Variant	enrichment ratio
LSLW	≤ 0.25
YVLN	1.05
ISWF	≤ 0.25
HLQH	≤ 0.25
RNSG	≤ 0.25
MRIN	≤ 0.25
KLCC	≤ 0.25
AWRT	≤ 0.25
TGYL	10.1
FSQH	≤ 0.25
SEWP	≤ 0.25
QYMR	≤ 0.25
HGLM	16.4
EPAS	≤ 0.25
PDYY	≤ 0.25
PEPP	≤ 0.25
SIMF	2.82
DRSA	≤ 0.25
IMGM	≤ 0.25
QEAS	10.1
QQVK	≤ 0.25
EIKI	≤ 0.25
NEIH	≤ 0.25
ESYD	≤ 0.25
MIVY	3.34

Variant	enrichment ratio
PEVY	≤ 0.25
YGDQ	≤ 0.25
FEHD	≤ 0.25
SADQ	≤ 0.25
EHPE	≤ 0.25
FLVG	≤ 0.25
VHYS	≤ 0.25
LTLY	≤ 0.25
SNLS	11.5
KKNK	≤ 0.25
NHCL	≤ 0.25
EEIM	≤ 0.25
WWAL	≤ 0.25
PAFR	≤ 0.25
APFF	≤ 0.25
PPWT	≤ 0.25
ETVN	≤ 0.25
SVSF	12.6
VYYV	≤ 0.25
IHVI	≤ 0.25
DVYQ	≤ 0.25
KQKA	≤ 0.25
DMTD	≤ 0.25
FEVK	≤ 0.25
FRDG	≤ 0.25

Variant	enrichment ratio
QKIS	≤ 0.25
TWFK	≤ 0.25
GDFK	≤ 0.25
DIKK	≤ 0.25
WDLD	≤ 0.25
SFME	≤ 0.25
QRVS	≤ 0.25
KMEL	≤ 0.25
GFYP	≤ 0.25
MSGQ	14.3
MGCQ	2.9
LEAM	4.01
TVGA	7.97
SENY	0.524
RDIF	≤ 0.25
EVEY	≤ 0.25
QTPK	≤ 0.25
YNDD	≤ 0.25
LPYG	≤ 0.25
KKLY	≤ 0.25
